Data taken from publication PMC4336329 (PLoS ONE, 2015).
In all, about 310,000 compounds went through this assay and about 14,000 (4.5%) showed an effect of 50% or more. Effects have a minus sign here. The list shows a part of the results.

Target: human ether-à-go-go-related gene (hERG) potassium channel (human, UniProt Q12809)
Assay: primary screen, population patch clamp on CHO cells stably expressing hERG
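Further: peak tail current of the secondary pulse compared with the same well before compound.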

Chain of human ether-à-go-go-related gene (hERG) potassium channel (Q12809 whole entry, looked up): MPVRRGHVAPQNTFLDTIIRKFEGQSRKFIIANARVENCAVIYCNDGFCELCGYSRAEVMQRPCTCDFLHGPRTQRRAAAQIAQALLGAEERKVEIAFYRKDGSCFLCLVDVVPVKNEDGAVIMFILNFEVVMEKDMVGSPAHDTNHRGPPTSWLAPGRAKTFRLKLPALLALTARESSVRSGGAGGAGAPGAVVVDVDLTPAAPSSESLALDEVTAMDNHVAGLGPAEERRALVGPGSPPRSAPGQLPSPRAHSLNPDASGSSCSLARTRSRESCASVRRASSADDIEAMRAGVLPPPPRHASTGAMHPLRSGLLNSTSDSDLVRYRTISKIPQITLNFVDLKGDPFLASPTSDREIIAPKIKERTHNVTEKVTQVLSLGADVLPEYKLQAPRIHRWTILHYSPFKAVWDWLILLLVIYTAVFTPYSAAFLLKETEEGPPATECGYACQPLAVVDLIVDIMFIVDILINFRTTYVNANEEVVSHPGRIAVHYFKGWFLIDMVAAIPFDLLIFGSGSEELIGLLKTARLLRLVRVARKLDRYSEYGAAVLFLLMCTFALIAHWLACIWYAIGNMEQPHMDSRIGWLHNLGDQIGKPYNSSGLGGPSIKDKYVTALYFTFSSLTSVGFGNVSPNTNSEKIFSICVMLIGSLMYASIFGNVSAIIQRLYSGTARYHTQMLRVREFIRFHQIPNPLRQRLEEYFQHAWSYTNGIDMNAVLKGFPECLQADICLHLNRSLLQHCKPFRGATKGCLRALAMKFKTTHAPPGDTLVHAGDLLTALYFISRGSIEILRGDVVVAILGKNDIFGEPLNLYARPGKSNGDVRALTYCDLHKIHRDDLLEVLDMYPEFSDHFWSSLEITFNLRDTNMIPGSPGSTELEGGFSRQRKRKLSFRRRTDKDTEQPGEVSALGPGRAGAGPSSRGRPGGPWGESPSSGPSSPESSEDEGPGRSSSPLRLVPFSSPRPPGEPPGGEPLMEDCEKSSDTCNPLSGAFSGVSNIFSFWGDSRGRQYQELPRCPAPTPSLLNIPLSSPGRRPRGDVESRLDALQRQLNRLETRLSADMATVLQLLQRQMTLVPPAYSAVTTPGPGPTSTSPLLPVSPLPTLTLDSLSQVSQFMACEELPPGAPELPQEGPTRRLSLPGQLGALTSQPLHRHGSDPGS

| SMILES | hERG current change (%, negative = inhibition) at 10uM [%] |
| --- | --- |
| CC(=O)CC(=O)NC1C2CC3CC(C2)CC1C3 (stereo not drawn) | 24.8 |
| COc1ccc(OCc2cc(C(=O)N(C)Cc3cnccn3)no2)c(Cl)c1 | -2.98 |
| COc1ccc(CCNC2=C(Cl)C(=O)N(Cc3ccccc3)C2=O)cc1OC | 6.51 |
| Cc1ccc(C(=O)Nc2ccccc2C(=O)NCc2cccnc2)cc1 | -7.23 |
| CCOC(=O)c1c(NC(=O)COC(=O)c2ccccn2)sc(C)c1C | 2.02 |
| COc1cc(C(=O)Nc2ccc(C(C)=O)cc2)c(Br)c(OC)c1OC | 14.6 |
| COCc1nnc(NC(=O)c2ccc3c(c2)OCO3)s1 | 19 |
| CC(c1ccccc1)C1CC(=O)N(C2CCCCC2)C1=O (stereo not drawn) | -13.3 |
| Cc1c(N(C)S(=O)(=O)c2cc(C(=O)N3CCCC3)ccc2Cl)c(=O)n(-c2ccccc2)n1C | 2.81 |
| Cc1nc2ccccn2c1P(=S)(N1CCCCC1)N1CCCCC1 | -44.1 |
| Cn1c(=O)n(C)c2cc([N+](=O)[O-])c(N3CCN(C(=O)c4ccccc4Cl)CC3)cc21 | -34.4 |
| CN(C)CCNc1nc(-c2ccccc2)nnc1C(F)(F)F | -3.83 |
| CCOC(=O)c1c[nH]c2nc(C)ccc2c1=O | 47.9 |
| CCOC1OC(=O)C(Cl)=C1Nc1ccc(C)cc1 (stereo not drawn) | 1.26 |
| OCC[C@@H]1C[C@H](O)[C@@H](O)[C@]2(CCCO2)O1 | 21 |
| COc1ccc(CCC(=O)N(C)CC(=O)Nc2ccc(N3CCOCC3)cc2)cc1 | -11 |
| C=CCOC(=O)COc1ccc2c(C)c(CC)c(=O)oc2c1 | -3.99 |
| CCC(=O)Nc1nc2c(s1)COc1ccccc1-2 | -3.76 |
| O=C(Cn1nc(-c2ccccc2)c2ccccc2c1=O)Nc1ccc2c(c1)nc1n2CCOC1 | 15.4 |
| COc1ccc(N(CC(=O)Nc2ccc(F)c(Cl)c2)S(=O)(=O)c2c(C)noc2C)cc1 | -32.7 |
| Cc1ccc2c(-c3ccc([N+](=O)[O-])cc3)cc(=O)[nH]c2c1 | -3.35 |
| O=C(c1ccccc1O)N1N=C(C(F)(F)F)CC1(O)c1ccc([N+](=O)[O-])cc1 (stereo not drawn) | -23.4 |

| SMILES | hERG current change (%, negative = inhibition) at 10uM [%] |
| --- | --- |
| O=S(=O)(c1ccccc1Br)N1CCC(O)(c2cccnc2)CC1 | -5.76 |
| CCN(Cc1ccccc1)C(=O)c1oc2ccc(S(=O)(=O)N3CCOCC3)cc2c1C | -6.06 |
| CCN(CC)CCN1C(=O)C(=O)/C(=C(/O)c2ccc(S(=O)(=O)N3CCOCC3)cc2)C1c1ccccc1 (stereo not drawn) | 19 |
| O=[N+]([O-])c1cccnc1-n1cnc2ccccc21 | 16.3 |
| Cc1ccc(C(=O)c2ccc([N+](=O)[O-])cc2)c(C)c1 | -8.77 |
| OCc1ccccc1N=c1ssnc1Cl | 15.9 |
| Cc1ccc(C(O)(C(=O)NNc2ccc3ccccc3[nH+]2)c2ccc(C)cc2)cc1.[Cl-] | 12.9 |
| CCCc1ccc(-c2ccc(/C=C/C(=O)O)cc2)nc1 | -3.67 |
| Cc1ccc(S(C)(=O)=O)cc1C(=O)Nc1cccc(S(=O)(=O)N2CCCCCC2)c1 | -65.2 |
| CC(C)CC(=O)N(c1ccc(F)cc1)C1C=CS(=O)(=O)C1 (stereo not drawn) | 14.4 |
| Cc1nnc(SCCn2c(N(C)Cc3ccccc3)nc3c2c(=O)[nH]c(=O)n3C)s1 | -42.4 |
| COc1ccc(CNC(=O)COC(=O)C2CC3C=CC2C3)cc1 (stereo not drawn) | 14.5 |
| CC(=NCCCn1ccnc1)c1c(O)n(-c2ccccc2)c(=O)[nH]c1=O | 5.91 |
| C/C(=N\NC(=O)CN1CCOCC1)C(C)(C)C | 19.7 |
| COc1ccccc1C1NC=C([N+](=O)[O-])C=C1[N+](=O)[O-] (stereo not drawn) | -6.17 |
| Cc1ccc(CCNC(=O)CCn2ccc3cc(S(=O)(=O)N4CCCC4)ccc32)cc1 | -23.4 |
| CCN(CC)S(=O)(=O)c1ccc(N2CC(C(=O)NC3(C)CCS(=O)(=O)C3)CC2=O)cc1 (stereo not drawn) | 24.4 |
| CC(=O)NNC(=O)CSc1nnc(-c2ccccc2)c(-c2ccccc2)n1 | 19.4 |
| COc1cc(Cl)c(NC2=CC(=O)C(=O)c3ccccc32)c(OC)c1 | 4.39 |
| COC(=O)c1c(C)n(Cc2ccc3c(c2)OCO3)c2ccc(O)cc12 | 2.82 |
| CCC(=O)c1ccc(OCCSc2ncccn2)cc1 | -27.4 |
| COc1ccc(NC(=O)CN2C(=O)CSC(C)C2=O)c(OC)c1 (stereo not drawn) | -3.11 |

| SMILES | hERG current change (%, negative = inhibition) at 10uM [%] |
| --- | --- |
| Cc1cc(C(=O)COc2ccccc2Cl)c(C)n1-c1ccc2c(c1)OCO2 | 19.5 |
| Cc1ccc(NC(=O)Nc2c(C)n(C)n(-c3ccccc3)c2=O)cc1C | 13.1 |
| CCCNC1=C(C)C(=O)C2=C(C1=O)C(COC(N)=O)[C@]1(OC)C3NC3CN21 (stereo partly drawn) | 12.9 |
| COc1ccc(C(C(=O)NCc2ccccc2)N(Cc2ccc3c(c2)OCO3)C(=O)c2cnccn2)cc1 (stereo not drawn) | -46.8 |
| C=CCCOc1ccccc1C(N)=O | 1.88 |
| O=C(CSc1nnc(NC2CCCCC2)s1)Nc1ccc(N2CCOCC2)cc1 | 0.78 |
| O=C(CSc1nnc2ccc(-c3ccc(F)cc3)nn12)N1CCOCC1 | 1.7 |
| O=C(/C=C1\NC2(CCCC2)Cc2ccccc21)N1CCOCC1.O=S(=O)(O)O | -0.228 |
| Cc1cc(C)c2cc(CN(CC3CCCO3)S(=O)(=O)c3ccc4c(c3)OCCO4)c(=O)[nH]c2c1 (stereo not drawn) | -14.1 |
| CCN1CCN(C(=S)Nc2ccc(Cl)cc2)CC1 | -18 |
| COC(=O)c1c(-c2cccs2)csc1NC(=O)CN1CCOCC1 | -46.4 |
| CC(C)(C)[C@@H]1C=C(C(=O)N2CCN(Cc3ccccc3)CC2)O[C@H](OCc2ccc(CO)cc2)C1 | -32.8 |
| O=C1NC(=O)C2C1C(c1ccc([N+](=O)[O-])cc1)=NN2Cc1ccccc1 (stereo not drawn) | -0.967 |
| CSc1cccc(NC(=O)c2[nH]c(C)c(C(C)=O)c2C)c1 | -29.3 |
| COc1cccc(CNC(=O)C(=O)NCCC2CCCCN2S(=O)(=O)c2cccs2)c1 (stereo not drawn) | -23.6 |
| C=CCN1C(=O)/C(=C/c2ccc(OCC(=O)O)cc2)S/C1=N/c1nccs1 | 4.77 |
| O=C(NCCCn1ccnc1)C1CCCN(S(=O)(=O)c2ccc(F)cc2)C1 (stereo not drawn) | 10.7 |
| CCN(CC)c1ncnc2c1cnn2Cc1ccc(Cl)cc1 | -39 |
| CCO[C@@H]1OC(C(N)=O)=C[C@H](C2CC2)[C@H]1CCCO | 7.64 |
| O=C(NC(NCCCN1CCOCC1)(C(F)(F)F)C(F)(F)F)C1CCCCC1 | 13.6 |
| CC(C)c1ccc(NC(=O)CCNS(=O)(=O)c2cc(Br)cnc2N)cc1 | 2.34 |
| COc1cccc(NC(=O)CSc2nc3c(sc4ccccc43)c(=O)n2CCCN2CCCC2)c1 | -69.8 |

| SMILES | hERG current change (%, negative = inhibition) at 10uM [%] |
| --- | --- |
| O=C(NC1CCSc2ccccc21)c1ccc(Cl)c(S(=O)(=O)N2CCOCC2)c1 (stereo not drawn) | 7.48 |
| CC(/C=C/c1ccccc1)=N\NC(=O)Cn1nc(C)cc1C | -18 |
| O=C(OCC(=O)N1CCC(Cc2ccccc2)CC1)c1cc(Cl)ccc1O | -1.69 |
| Cc1onc(-c2ccccc2)c1C(=O)N1CCN(C/C=C/c2ccccc2)CC1.Cl | -44 |
| CN(C)c1cc[n+](CC[n+]2ccc(N(C)C)cc2)cc1.[Br-] | 15.6 |
| CCc1nnc2sc(-c3cc(-c4ccccc4)nc4ccccc34)nn12 | 2.05 |
| O=C(Nc1ccc(S(=O)(=O)N2CCCC2)cc1)c1cc(=O)c2ccccc2o1 | 2.3 |
| CCOc1cc(N(CC)CC)ccc1/C=C(/C#N)c1nc2ccccc2[nH]1 | 0.119 |
| O=S(=O)(NC(=S)NC1CCCCC1)c1ccc(Cl)cc1 | 14.7 |
| CCC(=O)c1ccc(N2CCCCCC2)c(F)c1 | 4.04 |
| COC(=O)c1ccc2c(=O)n(CC3CCCO3)c(SCC(=O)Nc3ccc(OC)cc3OC)nc2c1 (stereo not drawn) | 11.5 |
| COC(=O)c1ccccc1NC(=O)c1ccc(COc2cccc3ccccc23)o1 | 0.342 |
| Cc1ccc(NC(=O)CSc2ccc(-c3ccco3)nn2)cc1 | -7.67 |
| O=C(Nc1cccc2cccnc12)c1cccc(N2C(=O)CCC2=O)c1 | 13.5 |
| COc1ccc(CCC(=O)N2CCCc3ccccc32)cc1 | 6.02 |
| Cc1cccc(N2CCN(C(=O)COc3ccc4ccc(=O)oc4c3)CC2)c1C | 5.66 |
| Cc1ccc(-n2cnnn2)c(S(=O)(=O)N2CCOCC2)c1 | -11.2 |
| CCOC(=O)c1c(C)n(C)c2ccc(OCCN(C)C)cc12 | -5.39 |
| CCn1ccnc1CNC(=O)c1ccc2oc(C(C)C)nc2c1 | 20.5 |
| CCOc1ccc(CCNC(=O)C2CCCN(S(=O)(=O)N3CC(C)CC(C)C3)C2)cc1OCC (stereo not drawn) | -5.9 |
| Cc1ccc(NC(=O)C2CC(=O)N(Cc3ccccc3)C2)nc1 (stereo not drawn) | 8.8 |
